# In DBAASP:
# Assays:
# Assay in all cases: ≥ marks a high value that may be exact or a test limit, other limits are often not marked
# [1] = system: Listeria monocytogenes ATCC 15313
# [2] = system: Candida tropicalis ATCC 20115
# [3] = system: Burkholderia cepacia ATCC 25416
# [4] = system: Shigella sonnei ATCC 29930
# [5] = system: Psychrobacter sp. PAMC 21119
# [6] = system: Streptococcus pyogenes ATCC 19615
# [7] = system: Flavobacterium sp. PAMC 22217
# [8] = system: Pseudomonas aeruginosa ATCC 15442
# [9] = system: Escherichia coli DH5alpha
# [10] = system: Lacinutrix algicola AKS293T
# [11] = system: Candida glabrata ATCC 2001
# [12] = system: Enterobacter cloacae ATCC 13047
# [13] = system: Staphylococcus aureus ATCC 33591
# [14] = system: Enterococcus faecalis ATCC 29212
# [15] = system: Salmonella enterica subsp. enterica serovar Enteritidis
# Listeria innocua = system: Listeria innocua
# Escherichia coli = system: Escherichia coli
# Micrococcus luteus A270 = system: Micrococcus luteus A270
Compound,MIC [1],MIC [2],MIC [3],MIC [4],MIC [5],MIC [6],MIC [7],MIC [8],MIC [9],MIC [10],MIC [11],MIC [12],MIC [13],MIC [14],MIC [15],MIC (Listeria innocua),MIC (Escherichia coli),MIC (Micrococcus luteus A270)
CC[C@H](C)[C@H](NC(=O)[C@H](Cc1cnc[nH]1)NC(=O)[C@H](Cc1cnc[nH]1)NC(=O)[C@H](Cc1c[nH]c2ccccc12)NC(=O)[C@H](Cc1ccccc1)NC(=O)[C@@H](N)Cc1ccccc1)C(=O)NCC(=O)N[C@@H](Cc1cnc[nH]1)C(=O)N[C@@H](C)C(=O)N[C@@H](CC(C)C)C(=O)N[C@@H](CC(=O)O)C(=O)N[C@@H](C)C(=O)N[C@@H](C)C(=O)N[C@@H](CCCCN)C(=O)N[C@@H](CCCN=C(N)N)C(=O)N[C@H](C(=O)N[C@@H](Cc1cnc[nH]1)C(=O)NCC(=O)N[C@@H](CCSC)C(=O)N[C@@H](CC(C)C)C(=O)N[C@@H](CO)C(=O)NCC(N)=O)C(C)C [FFWHHIGHALDAAKRVHGMLSG],12.5 µM,5 µM,≥ 50 µM,12.5 µM,2.5 µM,25 µM,5 µM,≥ 50 µM,12.5 µM,12.5 µM,≥ 50 µM,≥ 50 µM,25 µM,> 50 µM,–,–,–,–
CC(C)C[C@H](NC(=O)[C@H](Cc1ccccc1)NC(=O)[C@H](CCCCN)NC(=O)[C@H](CC(=O)O)NC(=O)[C@H](CC(C)C)NC(=O)[C@H](CO)NC(=O)[C@H](C)NC(=O)[C@H](Cc1cnc[nH]1)NC(=O)[C@@H](NC(=O)[C@H](C)NC(=O)[C@@H]1CCCN1C(=O)[C@@H](NC(=O)[C@H](Cc1ccccc1)NC(=O)[C@H](CC(=O)O)NC(=O)[C@H](CO)NC(=O)[C@@H]1CCCN1C(=O)[C@H](CC(C)C)NC(=O)[C@H](Cc1cnc[nH]1)NC(=O)[C@H](CO)NC(=O)[C@H](C)NC(=O)[C@H](CC(C)C)NC(=O)[C@@H](NC(=O)[C@@H](N)C(C)C)[C@@H](C)O)[C@@H](C)O)C(C)C)C(=O)N[C@@H](C)C(=O)N[C@@H](CC(N)=O)C(=O)N[C@H](C(=O)N[C@@H](CO)C(=O)O)C(C)C [VTLASHLPSDFTPAVHASLDKFLANVS],–,–,–,–,–,–,–,–,–,–,–,–,–,–,≥ 37 µM,≥ 37 µM,73 µM,9 µM
